# Several values for one entry are separate records, joined by “and”; a condition that tells them apart may be missing. Equal values may be shown once. In all, about 48,000 compounds went through this assay and about 1,200 (2.5%) were called active. About 2% were inconclusive and are not listed.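 The calls were made as follows: active = activation of at least 60% and not above a set upper limit (about 1 call in 100 departs from these limits); inconclusive = activation of 40% to 60%, or above that upper limit; inactive = activation under 40%.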 Some of the results follow.
# Biological target: Probable G-protein coupled receptor 32 (Homo sapiens) (UniProt O75388)
# Chain of UniProt O75388 (O75388 whole entry, looked up): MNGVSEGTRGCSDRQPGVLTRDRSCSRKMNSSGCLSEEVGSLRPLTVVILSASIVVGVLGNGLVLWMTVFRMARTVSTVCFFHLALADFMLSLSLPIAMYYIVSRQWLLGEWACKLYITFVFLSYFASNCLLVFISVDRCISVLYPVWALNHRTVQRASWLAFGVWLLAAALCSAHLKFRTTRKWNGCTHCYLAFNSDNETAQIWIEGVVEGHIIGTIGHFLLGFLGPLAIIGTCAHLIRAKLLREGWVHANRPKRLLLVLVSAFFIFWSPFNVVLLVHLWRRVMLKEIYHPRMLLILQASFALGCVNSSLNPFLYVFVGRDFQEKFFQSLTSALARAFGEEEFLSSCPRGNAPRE
# Assay: qHTS for Agonists of Human Resolvin D1 Receptor DRV1
# Details: CHO-K1 GPR32 beta-arrestin PathHunter luminescence, 90 min; at 76.9 µM; active compounds read high; zero percent set by DMSO-only wells
# In short: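 Beta-arrestin recruitment read-out: luminescence from complemented beta-Gal in CHO-K1 GPR32 PathHunter cells, measured 1 h after detection reagent at ambient temperature following 90 min compound exposure at 37 °C; DMSO served as basal (EC0) control.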
row,Compound,activation
1,COc1cccc(C(=O)Nc2ccccc2-c2nnc(-c3cccc(OC)c3)o2)c1,inactive: -0.29%
2,O=C(Cn1c(=O)oc2cc(S(=O)(=O)NCc3ccccc3)ccc21)NCc1ccc(Cl)cc1,inactive: 18.7%
3,CCOc1cc(CNC(=O)Cn2c(-c3cccs3)cc3cc(F)ccc32)ccc1OC,inactive: -7.77%
4,Cc1ccc(-n2c(SCC(N)=O)nc3c(oc4ccccc43)c2=O)cc1C,inactive: -6.72%
5,COC(=O)C1=C(c2ccccc2)c2ccccc2S(=O)(=O)N1CC(=O)Nc1ccccc1Cl,inactive: -3.44%
6,Cc1ccc(C)c(N2CCN(Cc3csc(C)c3)CC2)c1,inactive: -23.8%
7,Cc1ccc(C)c(NC(=O)Cn2c(=O)n(Cc3ccccc3)c(=O)c3oc4ccccc4c32)c1,inactive: -9.7%
8,Nc1ccc(S(=O)(=O)Nc2ccnn2-c2ccccc2)cc1,inactive: 5.49% and inactive: -4.48%
9,CCOCCCn1c(=N)c(C(=O)NCC2CCCO2)cc2c(=O)n3cccc(C)c3nc21 (centres undefined),inactive: 18.1%
10,O=C(c1cccs1)N1CCCc2cc(NS(=O)(=O)c3ccc(F)cc3F)ccc21,inactive: -15.2%
11,CCN(C)C(=O)Oc1cccc([C@H](C)N(C)C)c1,inactive: 17.8%
12,CCCN(CCC)CCCNC(=O)Cn1cnc2sc(C)c(S(=O)(=O)N3CCC(C)CC3)c2c1=O,inactive: 3.17%
13,O=C(Nc1cccc(F)c1)c1ccc(-c2ccccc2)s1,active: 68.3%
14,Cc1cccc(NS(=O)(=O)c2ccc3c(c2)CCN3C(=O)C2CCC2)c1,inactive: -0.107%
15,COC(=O)C1CCN(S(=O)(=O)c2cc3c4c(c2)CC(=O)N4CCC3)CC1,inactive: -21.8%
16,COc1ccc2c(c1)NC(c1cccnc1)=NC(c1ccc(F)cc1)=N2,inactive: 7.51%
17,Cc1ccc(S(=O)(=O)c2cn(Cc3ccccc3Cl)c3ccc(F)cc3c2=O)cc1,inactive: -8.32%
18,COc1ccc(Br)cc1CNC(=O)c1ccc2c(c1)N(Cc1ccc(C)cc1)CCS2,inactive: -18.3%
19,Cc1ccc(CN2C(=O)c3ccccc3Sc3ccc(C(=O)OCc4ccco4)cc32)cc1,inactive: -20.2%
20,CCc1cccc(Nc2ncnc3onc(-c4ccc(F)cc4)c23)c1,inactive: -2.78%
21,COC(=O)c1c(C)nn(-c2ccc(F)cc2)c1-n1cccc1,inactive: -24.2%

row,Compound,activation
1,Cc1ccc(NC(=O)CSc2nc(-c3ccccc3Cl)nc3cc(=O)[nH]n23)c(C)c1,inactive: 0.591%
2,Cc1ccc(C(c2sc3nc(-c4ccco4)nn3c2O)N2CCC3(CC2)OCCO3)cc1 (centres undefined),inactive: 8.02%
3,COc1ccc(OC)c(C2NC(=O)NC(C)=C2C(=O)Nc2ccc(F)cc2)c1 (centres undefined),inactive: -6.24%
4,COc1cccc(N2CCN(S(=O)(=O)c3ccc(-c4ccno4)cc3OC)CC2)c1,inactive: -0.323%
5,O=C(CSc1cn(CC(=O)N2CCCCC2)c2ccccc12)Nc1ccc(C(F)(F)F)cc1,inactive: -2.78%
6,O=C(CSc1nc(-c2ccc(F)cc2)cc(C(F)(F)F)n1)NCCc1ccccc1,inactive: 3.63%
7,O=C(NCC(O)CO)c1c(I)c(C(=O)NCC(O)CO)c(I)c(N(CCO)C(=O)CO)c1I (centres undefined),inactive: 14%
8,COc1ccc(NC(=O)c2ccco2)cc1NC(=O)COc1ccc(Cl)cc1C,inactive: -4.99%
9,COc1cccc(N2CCN(C(=O)c3ccc(NC(=O)c4nsc5ccccc45)cc3)CC2)c1,inactive: -15.9%
10,CCN(CC)CCNC(=O)c1sc2ncccc2c1-n1cccc1,inactive: -11.3%
11,Cc1ccc(C(=O)NCc2ccc(F)cc2)cc1NC(=O)c1nsc2ccccc12,inactive: -22.2%
12,Cc1cc(C)cc(-n2c(SCC(=O)Nc3ccc4c(c3)OCCO4)nc3c([nH]c4ccccc43)c2=O)c1,inactive: -12.9%
13,Cn1cc(S(=O)(=O)c2ccccc2)c(=O)c2cc(F)c(N3CCCCCC3)cc21,inactive: 1.29%
14,CC1=C(c2ccc(C)c(C)c2)S(=O)(=O)N=C1N1CCC(C(=O)NC(C)Cc2ccco2)CC1 (centres undefined),inactive: -4.83%
15,Cn1c(=O)n(C)c2cc(N3CCCCC3)c(NC(=O)c3ccc(C(C)(C)C)cc3)cc21,inactive: 5.76%
16,COc1ccc(CNC(=O)CCc2nc(-c3ccc(C)cc3)no2)c(OC)c1,inactive: -18.7%
17,O=C(Nc1ccc2nc(SCC(=O)N3CCc4ccccc43)sc2c1)c1ccccc1F,inactive: 4.79%
18,COc1cc(C(=O)Nc2nonc2-c2ccc(C)c(C)c2)cc(OC)c1OC,inactive: 6.34%
19,COc1ccc(C)cc1-n1cnc2cc(C(=O)NC3CCCC3)ccc21,inactive: -4.89%
20,Cc1ccc(NC(=O)c2ccc(NC(=O)N3CCSc4ncccc43)cc2)c(C)c1,inactive: 4.39%
21,CCC(=O)c1c(O)cc(O)cc1O,inactive: -4.7%

row,Compound,activation
1,CCOc1ccccc1NC(=O)Cn1c2ncccc2c(=O)n1-c1ccc(C)c(C)c1,inactive: -12.5%
2,CCc1ccc2nc(N3CCN(C(=O)C4CC4)CC3)sc2c1,inactive: -2.87%
3,Cn1nnnc1SCCCNCc1cccc(OCc2ccccc2Cl)c1,inactive: -2.18%
4,COc1ccc(C)cc1NC(=O)CSc1nc(=O)n(Cc2ccccn2)c2c1CCC2,inactive: -5.22%
5,CCN1C(=O)C(Cc2nc3ccccc3c(=O)n2-c2ccccc2)c2cc(Br)ccc21 (centres undefined),inactive: -0.603%
6,Cc1oc(-c2ccc(C(=O)Nc3ccccc3F)cc2)nc1COc1ccccc1,inactive: -2.69%
7,CCOc1ccc(NC(=O)CN2C(=O)C3(SCC(=O)N3c3ccc(F)cc3)c3ccccc32)cc1 (centres undefined),inactive: -9.04%
8,Cc1cccc(C)c1NC(=O)CN1C(=O)c2cccc3cccc1c23,inactive: -7.39%
9,COc1ccc(C2C(=O)N(C3CCC(C)CC3)CC(=O)N2CCC2=CCCCC2)cc1OC (centres undefined),inactive: -17.1%
10,Cc1oc2c(c(C)cc3oc(=O)c(CC(=O)NCc4ccc(F)cc4)c(C)c32)c1C,inactive: -12.6%
11,CC(=O)N1CCCc2cc(S(=O)(=O)Nc3ccc(C)c(F)c3)ccc21,inactive: -6.36%
12,COc1ccc(CNc2oc(-c3ccc(COc4ccc(OC)cc4)o3)nc2C#N)cc1,inactive: -25.7%
13,CCOC(=O)c1ccc(NS(=O)(=O)c2ccc3[nH]c4c(c3c2)CCCCC4)cc1,inactive: 10.3%
14,Cc1cccc(NC(=O)Cn2c(=O)oc3cc(S(=O)(=O)NC4CCCC4)ccc32)c1,inactive: 15.9%
15,CCc1nn(CC(=O)N2CCN(c3cccc(C(F)(F)F)c3)CC2)c(=O)c2cccn12,inactive: -8.59%
16,CC(=O)N1CCc2cc(S(=O)(=O)NC(Cc3ccccc3)C(=O)Nc3ccc(Cl)cc3)ccc21 (centres undefined),active: 95.8%
17,Cc1cc(C)c(OCC(=O)N(Cc2cccc(F)c2)Cc2ccco2)c(C)c1,inactive: -23.9%
18,Cc1ccc(C)c(CN2C(=O)c3ccccc3S(=O)(=O)c3ccc(C(=O)NCc4ccccc4)cc32)c1,inactive: -22.1%
19,Cc1cccc(OCCSc2nc3ccc(NC(=O)COc4ccccc4)cc3s2)c1,inactive: -3.57%
20,Cc1cccc(OCCCn2c(CCNC(=O)C(C)(C)C)nc3ccccc32)c1,inactive: 14.8%
21,CCCN1CCc2nc(N3CCN(c4ncccn4)CC3)ncc2C1,inactive: -20.9%

row,Compound,activation
1,CCOc1ccc(C(=O)Nc2ccc3oc(-c4cccnc4)nc3c2)cc1,inactive: 15.7%
2,COc1ccc(S(=O)(=O)Nc2cc3c(cc2NCc2ccccc2)n(C)c(=O)n3C)cc1,inactive: 31.7%
3,Cc1ccc2c(=O)c(C(=O)c3ccc(F)cc3)cn(CC(=O)NCCc3ccccc3)c2n1,inactive: -6.99%
4,CCOCCCNC(=O)C(=O)Nc1c2c(nn1-c1ccc(OC)cc1)CSC2,inactive: -39.4%
5,COc1ccc(CN(Cc2ccco2)c2cnc(S(C)(=O)=O)nc2C(=O)Nc2ccc(C)cc2C)cc1,inactive: -15%
6,Cc1c(C(=O)NCc2ccccc2Cl)sc2nc[nH]c(=O)c12,inactive: 16.8%
7,CN1CCN(CCCNC(=O)c2ccc3nc(Cc4ccccc4)oc3c2)CC1,inactive: -10.5%
8,O=C(CN1CCCN(Cc2ccc(F)cc2)S1(=O)=O)NCc1ccccc1Cl,inactive: -14.5%
9,Cc1csc2nc(COC(=O)CNC(=O)c3ccccc3Cl)cc(=O)n12,inactive: -4.18%
10,O=C(Nc1c(C(=O)N2CCN(c3ccccc3F)CC2)oc2ccccc12)c1ccccc1F,inactive: 6.7%
11,O=C(CSc1nc2ccncc2[nH]1)Nc1ccccc1C(F)(F)F,inactive: 8.97%
12,Cc1ccc(-n2nc3c(=O)n(CCCC(=O)NCc4ccccc4F)nc(C)c3c2C)cc1,inactive: -9.06%
13,Cc1nc(-c2ccc(S(=O)(=O)N3CCN(c4ccc(F)cc4)CC3)cc2)co1,inactive: 6.73%
14,CNC(=O)c1cnn(-c2nc(N)c3ncn([C@@H]4O[C@H](CO)[C@@H](O)[C@H]4O)c3n2)c1,inactive: -2.13%
15,CCC12CN3CC(CC)(CN(C1)C3c1cc(Br)ccc1OC)C2=O (centres undefined),inactive: -8.73%
16,OCC1O[C@H](O)C(Cl)C(O)C1O (some centres undefined),inactive: 5.97%
17,CC(=O)N1CCOc2cc(S(=O)(=O)N(C)Cc3ccccc3)c(Cl)cc21,inactive: 0.433%
18,CCC(=O)N1CCc2cc(Br)cc(S(=O)(=O)CCC(=O)NCc3ccc(F)cc3)c21,inactive: -5.52%
19,N#Cc1ccccc1NC(=O)c1cnc(N2CCOCC2)c2ccccc12,inactive: -6.93%
20,COc1cccc2c1Oc1ncccc1N(C(=O)CCC(=O)NCc1ccc(C)cc1)C2,inactive: -12%
21,Cc1ccc(Cn2c(CNC(=O)c3cccc(C)c3)nc3ccccc32)cc1,inactive: 24.7%

# Source: PubChem BioAssay AID1346428 (National Center for Advancing Translational Sciences (NCATS), 2018)
